Test results: PubChem BioAssay AID2100 (National Center for Advancing Translational Sciences (NCATS), 2009)
Several values for one entry are separate records, joined by “and”; a condition that tells them apart may be missing. Identical values can stand only once. In all, about 300,000 compounds went through this assay and about 1,200 (0.4%) were called active. Inconclusive results, whose numbers are uncertain, are shown with a selection of clear calls. Calls follow the shape of the dose curve; as a rule, active = well fitted inhibition curve with a large enough effect; inconclusive = small, poorly fitted or top-dose-only effect, or another doubt; inactive = no such curve, though single readings can be large or run the other way. A potency beside an inconclusive call is a rough fit, not a confirmed value.

Target: Lysosomal alpha-glucosidase (Homo sapiens) (UniProt P10253)
Test: qHTS Assay for Inhibitors and Activators of Human alpha-Glucosidase Cleavage of Glycogen;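 as to activity change, negative = inhibition: 0% = full enzyme reaction and -100% = no-enzyme basal signal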
Conditions: recombinant GAA, glycogen substrate, Amplex Red glucose oxidase fluorescence; activity change, negative = inhibition: at 76.4 µM (top of the series) unless noted
Summary of the method: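 Natural-substrate format: glycogen cleavage by 4 nM human enzyme, glucose read by Amplex Red coupling (Ex 573, Em 610 nm). Normalized to enzyme and no-enzyme controls.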
Potency is read from the fitted curve at half-maximal effect.

SMILES	Potency	activity change, negative = inhibition
CCOc1ccc(C2Nc3cccc4cccc(c34)N2)cc1OC	inconclusive: 39.5 µM [activator, single point]	–
CCS(=O)(=O)N1Cc2ccccc2CC1C(=O)Nc1ccc(OC)cc1 (centres undefined)	–	inconclusive: 27.2% [activator]
COc1ccc(NC(=O)c2csnn2)cc1Cl	inactive	–
CN(C)c1cccc2c1c(NC(=O)Nc1ccc(Cl)cc1Cl)nn2C	inactive	–
O=C(O)CCCC(=O)Nc1ccc(N2CCCC2)cc1	inconclusive: 22.4 µM [inhibitor, partial curve]	–
O=C(CN1C(=O)c2ccccc2S1(=O)=O)c1ccc(O)c(O)c1	active: 14.1 µM	–
CCc1cc(/C(Cc2ccccn2)=N\Nc2ccccc2)c(O)cc1O	inconclusive: 31.6 µM [inhibitor, single point]	–
Cc1cccc(S(=O)(=O)NNC(=O)c2sc(C)nc2C)c1	inconclusive: 20 µM [inhibitor, partial curve]	–
COc1ccc(C(=O)n2c(C)c(CCO)c(=O)n2C)cc1	inconclusive: 31.6 µM [inhibitor, single point]	–
CCN(CC)c1ccc(S(=O)(=O)N2CCOCC2)cc1NS(C)(=O)=O	inconclusive: 12.5 µM [inhibitor, partial curve]	–
O=C(Cn1ncc2c3ccccc3n(Cc3ccccc3F)c2c1=O)N1CCCCCC1	inactive	–
COc1ccccc1NC(=S)NNC(=O)c1cc(C)nn1C	inconclusive: 22.4 µM [inhibitor, partial curve, poor fit]	–
Cc1cccc(NNC(=O)C(=O)NNc2cccc(C)c2)c1	inconclusive: 2.82 µM [inhibitor, full curve]	–
CCNC(=S)N/N=C(\C)c1ccc2c(c1)OCCO2	inconclusive: 20 µM [inhibitor, single point]	–
O=C(Nc1nc2ccccc2s1)c1cccc(S(=O)(=O)N2CCc3ccccc32)c1	inactive	–
CCN1CCSc2ccc(C(=O)NCc3ccc(F)cc3)cc21	inconclusive: 50.1 µM [inhibitor, single point]	–
Cc1cc(O)ccc1N=Cc1c(C(F)(F)F)[nH][nH]c1=O	active: 22.4 µM	–
COc1ccc(Nc2nc(-c3sc(NC(C)=O)nc3C)cs2)cc1	inconclusive: 35.2 µM [inhibitor, single point]	–
CCCCN(Cc1cc2ccccc2[nH]c1=O)C(=O)c1ccccn1	inconclusive: 6.26 µM [inhibitor, single point]	–
Brc1cccc(-c2n[nH]c(-c3ccccc3)n2)c1	–	inconclusive: 10% [activator]
CCN(CC)c1ccc(C=N/C(C#N)=C(\N)C#N)cc1	inconclusive: 22.2 µM [inhibitor, partial curve]	–
Nc1nc2ccc(S(=O)(=O)c3ccc4nc(N)sc4c3)cc2s1	inactive	–

SMILES	Potency	activity change, negative = inhibition
COc1ccc(OC)c(Nc2nc(=O)c3cccnc3s2)c1	active: 28.2 µM	–
CCOc1ccc(NC(=S)Nc2ccccc2C2(C)CC2)cc1	inconclusive: 11.2 µM [inhibitor, full curve, poor fit]	–
CC1(C)CN(c2ccccc2)N(C(=O)c2ccc(F)cc2)C1=O	inactive	–
CCOC(=O)N1CCN(C(=O)CCc2ccc(S(=O)(=O)NC(C)C)cc2)CC1	inactive	–
COCc1cc(C)nc2sc3c(c12)NC(c1ccccc1C(=O)O)N(c1cccc(C(F)(F)F)c1)C3=O (centres undefined)	inconclusive: 35.5 µM [inhibitor, single point]	–
Cc1ccc(C(=O)Nc2cc3ccccc3oc2=O)cc1	inactive	–
C/C(=N\NC(=O)c1cccc(N/N=C(\C)c2ccco2)c1)c1ccco1	inconclusive: 31.6 µM [inhibitor, partial curve]	–
Cc1cc(SCC(=O)N/N=C/c2ccc(O)c(O)c2)nc2ccccc12	inconclusive: 11.2 µM [inhibitor, single point]	–
COc1cc(/C=N/Nc2ccc(Cl)c(C(=O)O)c2)ccc1OC(=O)c1ccco1	inconclusive: 15.8 µM [inhibitor, partial curve]	–
Cc1ccn2c(Nc3ccccc3C)c(-c3ccncc3)nc2c1	inconclusive: 14 µM [inhibitor, partial curve] and inconclusive: 14.1 µM [inhibitor, partial curve]	–
CC(=O)c1ccc2c(c1)C1C=CCC1C(c1ccc(S(=O)(=O)N3CCOCC3)cc1)N2 (centres undefined)	inconclusive: 39.5 µM [inhibitor, single point]	–
CCn1cc2nc(SCC(=O)Nc3cc(OC)ccc3OC)n(Cc3ccc(Cl)cc3)c(=O)c2n1	inactive	–
COc1ccccc1N(C(=O)c1ccco1)C(C(=O)NC1CCCC1)c1ccncc1 (centres undefined)	inconclusive: 50.1 µM [inhibitor, single point]	–
Cc1[nH]n(-c2ccccc2)c(=O)c1Sc1ccc(Cl)cc1	inconclusive: 28 µM [inhibitor, single point]	–
CCS(=O)(=O)N1CCc2cc(C(=O)Nc3cc([N+](=O)[O-])ccc3C)ccc21	inconclusive: 31.6 µM [inhibitor, partial curve]	–
COC(=O)Cn1cnc2c(nnn2-c2ccc(F)cc2)c1=O	inactive	–
CCC(C)c1ccc(O)c(NC(=S)NC(=O)c2cccnc2)c1 (centres undefined)	inconclusive: 11.1 µM [inhibitor, partial curve]	–
N#CCCn1nc(-c2ccc([N+](=O)[O-])cc2)cc1Nc1ccccc1NC(=O)C(F)(F)F	inconclusive: 6.31 µM [inhibitor, full curve, poor fit]	–
CCN(CC)c1ccc(NS(=O)(=O)c2cn(C)c(=O)n(C)c2=O)c(C)c1	inconclusive: 5.62 µM [inhibitor, full curve]	–
Cc1cccc(/C=N/n2c(-c3ccco3)n[nH]c2=S)c1	inconclusive: 44.7 µM [inhibitor, single point]	–
COCCCn1c(Cc2csc(Nc3ccccc3)n2)nnc1SCC(N)=O	inconclusive: 35.2 µM [inhibitor, single point]	–
O=C1CC(=O)CC(c2ccccc2)C1	inconclusive: 56.2 µM [inhibitor, partial curve]	–
